In patent publication US20250388663A1 (INSTITUT NATIONAL DE LA SANT ET DE LA RECHERCHE M DICALE, published 2025):
Blank lines part the entries; values can stand above or below the binder they belong to.

Columns and labels:
[1] = molecular target: T1, human serum albumin (human, UniProt P02768); assay: bridging immunosorbent assay: HSA coated, KB-F9D9A12 100 nM, factor IX 0-12 microgram/ml, 2.5 mM CaCl2, anti-factor IX detection
T1 construct: also called HSA; human albumin

[2] = molecular target: T2, human factor IX (human, UniProt P00740 47-461); assay: bridging ELISA: HSA-coated wells, KB-F9D9A12 at 100 nM, factor IX titrated in 2.5 mM CaCl2, anti-factor IX-HRP detection
T2 construct: also called coagulation factor IX

[3] = molecular target: T1, human serum albumin; assay: bridging immunosorbent assay: albumin coated, KB-V13A12 200 nM, VWF 0-6 microgram/ml, anti-VWF detection
[4] = molecular target: T3, mouse serum albumin (mouse, UniProt P07724 25-608); assay: as above
T3 construct: also called MSA; murine serum albumin

[5] = molecular target: T4, human von Willebrand factor (human, UniProt P04275 764-2813); assay: control immunosorbent assays
T4 construct: also called VWF; human VWF

[6] = molecular target: T1, human serum albumin; assay: bridging immunosorbent assay: HSA coated, KB-AT01A12 100 nM, antithrombin 0-6 microgram/ml, incubations at pH 5.6 or 7.4, anti-antithrombin detection
[7] = molecular target: T5, human antithrombin (human, UniProt P01008); assay: bridging ELISA: HSA-coated wells, KB-AT01A12 at 100 nM, antithrombin titrated, then three 20 min incubations at pH 7.4, anti-antithrombin-HRP detection
T5 construct: also called SERPIN C1
T5 sequence (P01008 33-464 limits assumed): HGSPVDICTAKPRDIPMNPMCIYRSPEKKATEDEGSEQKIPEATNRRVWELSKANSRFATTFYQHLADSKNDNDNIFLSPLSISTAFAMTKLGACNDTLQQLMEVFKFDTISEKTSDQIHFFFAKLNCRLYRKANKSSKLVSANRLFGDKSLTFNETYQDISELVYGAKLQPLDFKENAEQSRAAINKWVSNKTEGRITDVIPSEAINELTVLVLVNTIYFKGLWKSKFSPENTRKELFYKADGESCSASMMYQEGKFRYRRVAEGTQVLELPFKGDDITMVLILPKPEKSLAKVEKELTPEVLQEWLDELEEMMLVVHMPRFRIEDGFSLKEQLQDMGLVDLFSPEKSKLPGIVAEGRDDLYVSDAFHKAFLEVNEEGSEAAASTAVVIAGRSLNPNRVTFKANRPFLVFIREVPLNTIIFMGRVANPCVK

[8] = molecular target: T1, human serum albumin; assay: bridging immunosorbent assay: HSA coated, KB-FXE3A12 100 nM, factor X 0-6 microgram/ml, anti-factor X detection

B1: KB-F9D9A12 (bispecific antibody)
chain: QVQLVQSGGGLVQPGGSLKLSCAASGLIFSFNALGWYRQAPGKQRELVAHITSGGSTNYADSVKGRFTISRDNVKKTAFLQMNSLKPEDTAVYYCRSSQSGVEYWGQGTQVTVSSAAAGGGSGGGSGGGSGGGS[about 120 residues omitted here]
notes: also called KB-F9-D9 fused to OptiAlb-12; KB-FIX-D9 fused to OptiAlb-12; not shown: C-terminal histidine and cMyc-tag from the pHEN6 plasmid
binding result [1]: binds
binding result [2]: binds

B2: KB-V13A12 (bispecific antibody)
chain: QVQLVQSGGGLVQAGDSLRLSCAASGRTFIRYAMAWFRQAPGKEREFVAAIPQSGGRSYYADSVKGRFTISRDNAKNTVYLQMNSLKPEDTAVYSCAATSTYYGRSAYSSHSGGYDYWGQGTQVTVSSAAAGGGSGGGSGGGSGGGS[about 120 residues omitted here]
notes: Bispecific single-domain antibody: anti-VWF D'D3 sdAb KB-VWF-013, linker, anti-albumin sdAb OptiAlb-12; also called KB-VWF-013 fused to OptiAlb-12; not shown: C-terminal histidine and cMyc-tag from the pHEN6 plasmid
binding result [3]: binds
binding result [4]: binds

B3: KB-V80A12 (bispecific antibody)
chain: QVQLVQSGGGLVQAGGSLKLSCAASGRTFSDYAMGWFRQAPGKERDFVASISRSGGRLSYADSVKGRFTISRDNAKNTVYLQMNSLKPEDTAVYYCAARTNWNPPRPLPEEYNYWGQGTQVTVSSAAAGGGSGGGSGGGSGGGS[about 120 residues omitted here]
notes: also called KB-VWF-080 fused to OptiAlb-12; not shown: C-terminal histidine and cMyc-tag from the pHEN6 plasmid
binding result [5]: binds

Second part, the binder after the results:

binding result [6]: binds
binding result [7]: binds
B4: KB-AT01A12 (bispecific antibody)
chain: QVQLVQSGGGLVQAGGSLRLSCAASGRTFRNYVMGWFRQAPGKDPEFIAGINRSGAITYYGDSVKGRFTISRDNAKNTVSLQMNSLEPEDTAVYYCAAGETTWSIRRDDYDYWGQGTQVTVSSAAAGGGSGGGSGGGSGGGS[about 120 residues omitted here]
notes: also called KB-AT-01 fused to OptiAlb-12; not shown: C-terminal histidine and cMyc-tag from the pHEN6 plasmid

binding result [8]: binds
B5: KB-FXE3A12 (bispecific antibody)
chain: QVQLQESGGGLVQAGGSLRLSCAASGSISRGDLMAWFRQAPGKERELVATITPGANTYYADSVKGRFTISRDNTKNTMYLQMNSLKPEDTAVYFCAAASGKGPGRGRKHKYWGQGTQVTVSSAAAGGGSGGGSGGGSGGGS[about 120 residues omitted here]
notes: also called KB-X3A12; KB-FX-E3 fused to OptiAlb-12; not shown: C-terminal histidine and cMyc-tag from the pHEN6 plasmid
